# Among all 310,000 compounds or so, about 2,200 (0.71%) showed an effect of 50% or more. Effects have a minus sign here. The list shows a part of the results.
# Target: human ether-à-go-go-related gene (hERG) potassium channel (human, UniProt Q12809)
# Test: primary screen, population patch clamp on CHO cells stably expressing hERG
# Sequence of human ether-à-go-go-related gene (hERG) potassium channel (Q12809 whole entry, looked up): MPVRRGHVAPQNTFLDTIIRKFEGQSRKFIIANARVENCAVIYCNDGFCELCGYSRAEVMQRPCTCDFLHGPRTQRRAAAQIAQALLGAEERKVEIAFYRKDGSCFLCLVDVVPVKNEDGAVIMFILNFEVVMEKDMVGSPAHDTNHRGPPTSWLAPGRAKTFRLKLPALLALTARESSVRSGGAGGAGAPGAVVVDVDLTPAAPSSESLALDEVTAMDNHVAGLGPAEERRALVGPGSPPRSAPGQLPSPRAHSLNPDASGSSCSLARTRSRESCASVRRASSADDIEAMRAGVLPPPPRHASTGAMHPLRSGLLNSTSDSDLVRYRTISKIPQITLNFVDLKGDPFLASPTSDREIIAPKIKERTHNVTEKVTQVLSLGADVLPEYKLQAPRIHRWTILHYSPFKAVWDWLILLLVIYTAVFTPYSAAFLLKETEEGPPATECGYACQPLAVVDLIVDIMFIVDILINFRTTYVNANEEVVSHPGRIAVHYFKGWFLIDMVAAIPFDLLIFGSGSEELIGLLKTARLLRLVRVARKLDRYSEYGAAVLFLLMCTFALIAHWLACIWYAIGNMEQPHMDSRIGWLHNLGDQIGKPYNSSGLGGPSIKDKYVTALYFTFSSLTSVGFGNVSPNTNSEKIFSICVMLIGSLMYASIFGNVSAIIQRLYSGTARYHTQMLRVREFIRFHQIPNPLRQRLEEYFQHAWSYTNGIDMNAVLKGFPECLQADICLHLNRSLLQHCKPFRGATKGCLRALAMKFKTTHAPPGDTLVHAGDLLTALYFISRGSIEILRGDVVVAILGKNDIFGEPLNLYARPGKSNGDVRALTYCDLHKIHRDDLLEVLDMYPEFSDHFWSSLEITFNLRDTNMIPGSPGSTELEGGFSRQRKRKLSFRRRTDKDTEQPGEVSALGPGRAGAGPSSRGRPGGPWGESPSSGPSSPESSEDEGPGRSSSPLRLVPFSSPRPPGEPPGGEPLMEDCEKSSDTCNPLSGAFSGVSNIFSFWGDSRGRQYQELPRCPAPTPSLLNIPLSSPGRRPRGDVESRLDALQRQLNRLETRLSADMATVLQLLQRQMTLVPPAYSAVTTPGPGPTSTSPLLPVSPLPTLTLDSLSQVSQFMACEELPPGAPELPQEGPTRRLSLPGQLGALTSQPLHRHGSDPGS
row,Compound,"hERG current change (%, negative = inhibition) at 1uM [%]"
1,Cc1ccsc1C(=O)C1CCCN(Cc2cnn(C(C)C)c2)C1 (stereo not drawn),-8.27
2,O=c1c2ccccc2nc(-c2ccco2)n1-c1ccccc1,7.85
3,Cc1cccc(CSc2nc3c(c(-c4cccs4)c2C#N)CN(C)CC3)c1,5.51
4,CC(=O)N1C[C@H](O)C[C@H]1C(=O)O,-19
5,Oc1ccc(C2C[C@H]3CC[C@@H]2C3)cc1O (stereo partly drawn),15.3
6,COc1cccc(CNC(=O)CCNS(=O)(=O)c2ccc3c(c2)CC(C)N3C(C)=O)c1 (stereo not drawn),19.4
7,COc1ccc(Nc2nc(NCC3CCCO3)c3ccccc3n2)c(OC)c1.Cl (stereo not drawn),-48.8
8,O=S(=O)(c1ccc(S(=O)(=O)N(Cc2ccccc2)Cc2ccco2)cc1)N1CCCC1,-0.0628
9,CC1(c2ccccc2)NC(=O)N(CC(=O)Nc2ccccc2N2CCCCC2)C1=O (stereo not drawn),-1.54
10,COc1ccc(CC(=O)NNC(=O)COc2ccc(Br)cc2C)cc1OC,6.92
11,O=C(CN(CC1CCCO1)C(=O)Cn1nnc(-c2ccc(F)cc2)n1)NC1CCCCC1 (stereo not drawn),5.91
12,Cc1cc(C)n2c(-c3ccccc3Cl)nnc2n1,5.85
13,O=C(c1ccccn1)N1N=C2/C(=C/c3ccccc3)CCCC2C1c1ccccc1 (stereo not drawn),8.55
14,COc1ccc2[nH]c(=O)c(CN(CCc3ccccc3)Cc3nnnn3CC3CCCO3)cc2c1 (stereo not drawn),-16.6
15,C=CCn1c(SCC(=O)NCc2ccco2)nnc1-c1ccc2ccccc2n1,1.95
16,Cc1ccc(CCP(=O)(O)CN2CCOCC2)cn1,13.1
17,Cc1cc(C)nc(N/N=C/c2ccc(N3CCOCC3)cc2)n1,8.63
18,Cc1nn(C(=O)c2c([N+](=O)[O-])cnn2C)c(C)c1Cl,8.09
19,Nc1cccc(C(=O)N/N=C/c2ccsc2)c1,11.3
20,CCC(=O)c1ccc(OCC(=O)OCC(=O)c2cc(C)n(C)c2C)cc1,18.6
21,CC(/C=C/c1ccc(N(C)C)cc1)=N\N=C1\NC(=O)CC(C(=O)Nc2ccccc2)S1 (stereo not drawn),1.96
22,CCN(c1ccccc1)S(=O)(=O)c1cccc(C(=O)NCC(c2cccs2)N2CCOCC2)c1 (stereo not drawn),4.25

row,Compound,"hERG current change (%, negative = inhibition) at 1uM [%]"
1,CCc1nnc(NS(=O)(=O)c2ccc(NC(=O)c3cccc([N+](=O)[O-])c3)cc2)s1,13.1
2,Cc1cc(C(=O)NNc2ccc(Cl)cc2)no1,7.36
3,COC(=O)C(=O)/C=C(\O)c1ccc(C)cc1,4.97
4,O=C(c1ccc2c(c1)OCO2)N(c1ccc(F)cc1)C1C=CS(=O)(=O)C1 (stereo not drawn),7.66
5,O=C(CSc1ncnc2c1cnn2-c1ccccc1)NC1CCCC1,5.33
6,COCCNC(=O)c1ccccc1NC(=O)c1cc(OC)cc(OC)c1,8.23
7,CC(C)(C)CN1CCN(Cc2c[nH]c3ccccc23)CC1CCO (stereo not drawn),10.7
8,COC(=O)c1ccc(CSc2nnc3n(Cc4ccccc4OC)c(=O)c4ccccc4n23)o1,8.64
9,Cc1ccc(C(=O)NNS(=O)(=O)c2ccccc2[N+](=O)[O-])cc1,5.9
10,CCn1cc(CN2CCC(n3nccc3NC(=O)C(OC)c3ccccc3)CC2)cn1 (stereo not drawn),11.7
11,CCCCN(CC)CCCNC(=O)C1CCN(c2ncnc3c2sc2cccc(F)c23)CC1,-38.9
12,Cc1ccc(S(=O)(=O)NCC(=O)N(CC(=O)NCC2CCCO2)CC2CCCO2)cc1 (stereo not drawn),11.6
13,CCOc1ccc(Cc2nnc(SCC(=O)Nc3ccccc3)n(N)c2=O)cc1,-1.29
14,Cc1ccc(S(=O)(=O)N2CCN(Cc3ccccc3)CC2)cc1,10
15,N#CCCCSc1nnnn1-c1cccc(Cl)c1,12.3
16,Cc1ccc(/C=N/NC(=O)CCCOc2ccc(Cl)cc2Cl)cc1[N+](=O)[O-],5.79
17,C#CCNC(=O)C1=C[C@H](c2ccc(C(F)(F)F)cc2)C[C@H](OCCCCO)O1,6.56
18,CC1CCN(CC#CCOc2ccc(Cl)cc2)CC1.O=C(O)C(=O)O,15.7
19,C=CCc1cccc(/C=N/NC(=O)CCC(=O)Nc2ccc(F)cc2)c1O,12.6
20,C=CCc1ccccc1OCCCCN1CCCC1,-7.92
21,CCN(c1cccc(C)c1)S(=O)(=O)c1cccc(C(=O)O)c1,8.43
22,O=C(N1CCNCC1)N1CCOCC1,-5.61

row,Compound,"hERG current change (%, negative = inhibition) at 1uM [%]"
1,CC(=O)NC1CC2CCCC(C1)N2C(=O)Nc1ccccc1 (stereo not drawn),11.4
2,O=C(COc1ccc2ccccc2c1Br)N1CCOCC1,-3.24
3,Cc1ccc(NC(=O)c2cccc(C(F)(F)F)c2)cc1NC(=O)c1[nH]cnc1C(N)=O,10.5
4,CCOCCCNC(=O)C1CCN(S(=O)(=O)c2ccc3nc4c(c(C(=O)O)c3c2)CCCCC4)CC1,55.5
5,Cc1ccc(S(=O)(=O)N2CCN(C(=O)COc3ccc(C)nc3[N+](=O)[O-])CC2)c(C)c1,6.8
6,Cc1ccc(N(CC(=O)NC2CCCC2)C(=O)c2c(C)noc2C)cc1C,17.5
7,CCN(CC)c1ccc(/C=N/NC(=O)c2ccoc2C)cc1,2.4
8,CONc1nc(NC(C)(C)C)nc(OCC#N)n1,7.46
9,CC(=O)Nc1ccccc1OCC(=O)c1ccc2c(c1)OCO2,5.93
10,CCN=C1NN=C(c2c[nH]c3ccccc23)CS1,1.9
11,COc1ccc(NC(=O)c2cc3c([nH]c4ccccc43)c(C)n2)cc1,13.9
12,Cc1nc2ccccc2c(=O)n1NC(=O)/C=C/c1ccc(Br)cc1,2.25
13,Cc1cc(N2CCN(C)CC2)nc2ccc(NC(=O)CCC(=O)NCc3ccco3)cc12,4.12
14,CN(C)C(=O)c1ccc(NC(=O)COC(=O)/C=C/c2cccs2)cc1,11.3
15,O=C(O)C(=O)O.OC(CNC1CCCc2ccccc21)COc1ccc2ccccc2c1 (stereo not drawn),-15.8
16,CCOC(=O)c1nc(NCc2ccccc2)sc1C,16.6
17,CCCOc1ccc(-c2nnn(CC(=O)OCC)n2)cc1,0.429
18,COc1cccc(/C=N\NC(=O)c2ccc(Cn3cc(Br)c([N+](=O)[O-])n3)o2)c1O,12.8
19,Cc1c(Cl)c([N+](=O)[O-])nn1Cc1ccc(C(=O)N/N=C\c2ccccn2)o1,-1.35
20,COc1cc(S(=O)(=O)N2CCOCC2)ccc1NC(=O)COC(=O)c1ccccn1,0.143
21,Cc1nn(C)c(C)c1CNC(=O)c1cnn2c1NC(c1ccccc1)CC2C(F)(F)F (stereo not drawn),6.62
22,CC(C)(C)OC(=O)N[C@@H](Cc1ccccc1)C(=O)NCC1CCC(C(=O)N[C@@H](CCC(N)=O)C(=O)O)CC1 (stereo partly drawn),14.8

row,Compound,"hERG current change (%, negative = inhibition) at 1uM [%]"
1,N#Cc1cccc(NC(=O)COC(=O)CCc2ccc(S(=O)(=O)N3CCOCC3)cc2)c1,-35
2,COc1ccc(OCCCC(=O)OC(C)C(=O)Nc2cccc(C(C)=O)c2)cc1 (stereo not drawn),9.8
3,CC(C)Oc1ccc(CNC(=O)Oc2ccccc2)cc1,19.8
4,O=C(COc1cc2oc(=O)c3c(c2cc1Cl)CCC3)NCc1ccccn1,2.14
5,Cc1ccc(CCNC(=O)C23C[C@H]4C[C@@H](C2)CC(n2nnc(C)n2)(C4)C3)cc1,5.5
6,COc1ccc(S(=O)(=O)N(CC(=O)Nc2ccc(S(=O)(=O)N3CCOCC3)cc2)Cc2ccc(F)cc2)cc1,11.7
7,Cc1ccc(NS(=O)(=O)c2cccc(C(=O)N3CCN(C(=O)c4ccco4)CC3)c2)cc1,-0.237
8,O=C(C1=NN(c2ccccc2)C2C(=O)N(c3ccccc3)C(=O)C12)c1ccccc1 (stereo not drawn),2.16
9,CCCNC(=O)COC(=O)c1ccccc1OCc1ccc(Cl)cc1,3.69
10,COCCn1cnc2c1c(=O)n(CC(=O)OCC#N)c(=O)n2Cc1ccccc1,6.93
11,CNC(=S)NNc1nncc2ccccc12,4.69
12,COc1ccc(OC)c(N2C(=O)C(Cl)=C(N3CCOCC3)C2=O)c1,2.59
13,CCOc1ccc(N(C(=O)c2snc(C(N)=O)c2N)C(C)C(=O)NC2CCCCC2)cc1 (stereo not drawn),12.5
14,COc1ccc(C(C)=O)cc1COC(=O)CCNS(=O)(=O)c1ccc(C)c(C)c1,8.87
15,CCSc1nnc(NC(=O)[C@@H](NC(=O)c2ccc(C(C)(C)C)cc2)C(C)C)s1,6.78
16,O=C(CN1CCOc2ccccc21)NCc1ccccc1,4.24
17,O=C1CC(c2ccccc2)Sc2nc3ccccc3n21 (stereo not drawn),0.594
18,COc1cccc(-n2nc(-c3ccnn3-c3ccc(C)cc3)c(=O)n(C)c2=O)c1,11
19,Cc1nnc(NC(=O)CCC(=O)N2CCC(C)CC2)s1,12.2
20,COc1ccc2nc(SCC(=O)NCCc3ccccc3)[nH]c2c1,-1.17
21,CCN(CC)S(=O)(=O)c1nnc(NC(=O)c2ccco2)s1,15

# Reference: publication PMC4336329 (PLoS ONE, 2015)
